Test results: PubChem BioAssay AID743262 (National Center for Advancing Translational Sciences (NCATS), 2014)
Several values for one entry are separate records, joined by “and”; a condition that tells them apart may be missing. Equal values may be shown once. Hit rate of the full screen: of about 1,300 compounds, about 25 (2%) were called active. This list was built around the results that the source calls inconclusive (neither active nor inactive); the mix of calls is not that of the screen. Calls come from the whole dose curve; as a rule, active = well fitted activation curve with a large enough effect; inconclusive = small, poorly fitted or top-dose-only effect; inactive = flat fitted curve, though single readings scatter. Potencies beside an inconclusive call are fits to weak or partial responses and may not hold up.

The compounds below were run against Glucagon-like peptide 1 receptor (Homo sapiens) (UniProt P43220) (assay: qHTS of GLP-1 Receptor Agonists: Hit Validation). Settings: HEK293 GLP-1R, cAMP-response luciferase, 4-6 h.
Text: The overall goal of this project was to develop a novel assay for discovering small molecule ligands for class B1 G protein-coupled receptors (GPCRs). Very few agonists (or inverse agonists) with generally weak activity for this entire group of physiologically important receptors are known to date. To establish proof-of-principle that this critical bottleneck can be overcome with a suitable screening approach, our studies focused on the class B1 receptor for glucagon-like peptide-1 (GLP-1R), a potential therapeutic target for diabetes and neurodegenerative disease. The assay was developed in a "mix and measure" format using a cell-based functional readout. Toward this goal, stably transfected HEK293 cell clones were established that co-express (i) a cAMP-responsive luciferase reporter gene, and (ii) GLP-1Rs that upon ligand interaction either stimulate (agonists) or inhibit (inverse agonists) luciferase activity. In different cell lines to be used for screening, expressed GLP-1Rs are specifically optimized for high sensitivity detection of either weak agonists (hypersensitive receptor) or inverse agonists (constitutively active receptor mutant). In addition, control cell lines were developed that express either the cAMP-responsive reporter gene without recombinant GLP-1Rs (enabling initial exclusion of GLP-1R independent effects of candidate probes), or the reporter gene together with wild type GLP-1Rs (for confirmation of probe activity at this receptor), or the reporter gene in combination with the constitutively active orphan receptor GPR119 (enabling initial exclusion of GLP-1R independent inhibitory effects of candidate inverse agonists). To that end, this assay was optimized for 1536-well format and screened against the MLSMR. NIH Molecular Libraries Probe Production Network [MLPCN] NIH Chemical Genomics Center [NCGC] Grant: NS064851 PI Name: Martin Beinborn, Tufts Medical Center
In a white solid 1536-well plate, 6 uL of cells are dispensed in DMEM without phenol red, 10% Nu serum, and 1% pen-strep medium. The plates are then incubated for 12 hours at 37 deg C at 5% CO2 before 23 nL of compounds are added. After a 4-6 hr incubation at37 deg C and 5% CO2, 3 uL of detection reagent are added and after a 12 min incubation at RT, a luminescent read is obtained on the ViewLux.
Potency is the fitted concentration of half-maximal effect; tags give direction and shape of the fitted curve.

Sequence of UniProt P43220 (P43220 whole entry, looked up): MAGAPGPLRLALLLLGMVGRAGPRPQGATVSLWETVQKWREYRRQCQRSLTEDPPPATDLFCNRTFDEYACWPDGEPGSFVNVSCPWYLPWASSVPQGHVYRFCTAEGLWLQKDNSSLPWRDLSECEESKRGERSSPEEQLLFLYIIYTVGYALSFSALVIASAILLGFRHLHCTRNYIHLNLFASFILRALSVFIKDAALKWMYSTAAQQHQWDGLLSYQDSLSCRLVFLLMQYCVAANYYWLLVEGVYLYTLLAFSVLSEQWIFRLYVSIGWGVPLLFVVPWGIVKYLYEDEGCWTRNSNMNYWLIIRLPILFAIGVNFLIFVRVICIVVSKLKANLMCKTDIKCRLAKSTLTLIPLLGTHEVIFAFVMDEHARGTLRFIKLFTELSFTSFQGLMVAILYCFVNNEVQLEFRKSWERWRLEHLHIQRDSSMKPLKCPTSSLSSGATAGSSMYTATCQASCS

| Compound | Potency |
| --- | --- |
| CC(Cc1ccc(O)cc1)NCC(O)c1cc(O)cc(O)c1 (stereo unspecified) | inconclusive: 0.013 µM [activator, full curve] |
| CC(C)(C)NC[C@H](O)c1ccc(O)cc1Cl | inconclusive: 0.0052 µM [activator, full curve] |
| Oc1ccc(C[C@H]2NCCc3cc(O)c(O)cc32)cc1O | inconclusive: 1.3 µM [activator, full curve] |
| CNCC(O)c1ccc(OC(=O)C(C)(C)C)c(OC(=O)C(C)(C)C)c1 (stereo unspecified) | inconclusive: 69.9 nM [activator, full curve] and inconclusive: 82 nM [activator, full curve] |
| CC(C)(C)NCC(O)c1ccccc1Cl (stereo unspecified) | inconclusive: 0.0291 µM [activator, full curve] |
| COc1ccc(-c2cc(NC=O)c3ncc(-c4cc(OC)c(OC)c(OC)c4)n3c2)c(OC)c1 | inconclusive: 8.2 µM [activator, partial curve] |
| CN1CC[C@@]2(C)c3cc(O)ccc3N(C)[C@@H]12 | inconclusive: 0.58 µM [activator, full curve] |
| COc1ccc(CC(C)NCC(O)c2ccc(O)c(NC=O)c2)cc1 (stereo unspecified) | inconclusive: 0.0018 µM [activator, full curve, poor fit] |
| CCCCCn1c(Sc2ccccc2)nc2c1c(=O)[nH]c(=O)n2C | inconclusive: 18.4 µM [activator, single point] |
| CCC(=NCCC(c1ccccc1)c1ccccc1)c1c(O)[nH]c(=O)[nH]c1=O | inconclusive: 18.4 µM [activator, single point] |
| CC(C)NCC(O)c1ccc(N)c(C#N)c1 (stereo unspecified) | inconclusive: 0.0012 µM [activator] |
| OC(CNCCc1c[nH]c2ccccc12)c1ccccc1 (stereo unspecified) | inconclusive: 1.84 µM [activator, full curve, poor fit] |
| CC(NCC#Cc1ccccc1)C(O)c1ccccc1 (stereo unspecified) | inconclusive: 8.2 µM [activator, partial curve] |
| Oc1ccc(C2=CCNCC2)cc1O | inconclusive: 3.26 µM [activator, partial curve] |
| COc1ccc(C[C@@H](C)NC[C@H](O)c2ccc(O)c(NC=O)c2)cc1 | inconclusive: 5.17 µM [activator, full curve, poor fit] |
| CC(=O)O[C@H]1CC[C@H]2[C@@H]3CCC4=CC(=O)CCC4=C3C=C[C@]12C | inconclusive: 20.6 µM [activator, single point] |
